The record followed here is patent US20260199499A1, “ANTI-PDL1 ANTIBODY-DRUG CONJUGATE AND USE” (SHANGHAI HENLIUS BIOTECH, INC., priority 2023, published 2026).

The subject of data set [1] is human dendritic cells. Type of data set: cell-based. The conditions noted are these: high concentrations (500 nM), 96 hours, IFN-γ. On the procedure:
(§1) Since some human immune cells such as antigen-presenting cells (macrophages, dendritic cells, etc.) express PDL1, the immunotoxicity of PDL1-targeted antibody-conjugated drugs is an inevitable problem. Human dendritic cells and macrophages, after induced differentiation, were digested and viable cells were counted using Vi-Cell XR cytometer. The cell suspension was adjusted to an appropriate concentration with a culture medium. 80 μl/well of the cell suspension was added to a cell culture plate, which was supplemented with 500 IU/mL of IFN-γ. The test drug was diluted with a gradient (5-fold dilutions). 20 μl of each of the diluted test articles was taken and added to the cell suspension in the cell culture plate, and the cell culture plate was placed in an incubator and cultured for 96 hours. 50 μl/well of a CellTiter-Glo solution (purchased from Promega) that had been thawed in advance and equilibrated to room temperature was added according to CellTiter-Glo operation instructions. The wells were mixed uniformly with a microwell plate shaker for 2 minutes and maintained at room temperature for 10 minutes. The […] signal was measured using Envision 2104 plate reader. SGN-PDL1V was used as one of the control molecules and was disclosed in U.S. Patent No. US 20210101982 A1.

Data set [2] deals with human macrophages. Type of data set: cell-based. The conditions noted are these: high concentrations (500 nM), 96 hours, IFN-γ. As to the method: as §1
Data set [3] addresses T1, rat PDL1 ECD (Rattus norvegicus, UniProt D4AE25).
T1 construct: Extracellular domains (ECDs) of PDL1s derived from human, cynomolgus monkey, rat, and mouse
As to the kind of experiment: Cross-binding activity to PDL1 ECD (ELISA). (In general: ELISA stands for enzyme-linked immunosorbent assay.)

Data set [4] deals with human PDL1-positive head and neck squamous carcinoma LD1-2023-411020 PDX. The data set can be described thus: Anti-tumor effect, LD1-2023-411020 PDX xenograft. Type of data set: in vivo, NCG mice. The conditions noted are these: 10 mg/kg, once a week for three doses, day 28.
Data set [5] has as its system PDL1-negative tumor MDA-MB-468 cells. As to the kind of experiment: Bystander effect assay (supernatant of PDL1-overexpressing HEK293 cells on MDA-MB-468 cells). The data set is classed as cell-based. The conditions noted are these: 96 hours.
Data set [6] deals with PDL1-positive cells NCI-H292. As to the kind of experiment: Affinity of anti-PDL1 antibody-drug conjugate for PDL1-positive cells (flow cytometry). Type of data set: binding. (A flow cytometer gives signals particle by particle.)
The subject of data set [7] is human PDL1-positive cervical cancer LD1-0010-200614 PDX. As to the kind of experiment: Anti-tumor effect, LD1-0010-200614 PDX xenograft. The data set is classed as in vivo, Balb/c nude mice. To be noted: 10 mg/kg, once a week for three doses, day 35. As to the method: (§2) A human-derived PDL1-positive cervical cancer LD1-0010-200614 model was revived in Balb/c nude mice. Once the tumor had grown to 500-800 mm^3, the tumor tissue was surgically aseptically excised, and non-tumor tissues and necrotic tissues were removed. The tumor tissue was stripped and evenly cut into tissue blocks (about 25-35 mg) of about 3 mm×3 mm×3 mm in size, and then, which were inoculated subcutaneously on the right side of Balb/c nude mice. Once the average tumor volume of the mice for grouping reached 146.74 mm3, the mice were grouped randomly according to the size of the tumor volume, ensuring similar tumor volumes between groups. The day of grouping was defined as day 0. After the start of dosing, the body weight and tumor size of the mice were measured twice a week, and the mice were dosed once a week, for three doses. Clinical symptoms observed during the experiment were recorded. The tumor volume was calculated according to the following formula: tumor volume (mm3)=½×(a×b2) (wherein a represented the long diameter, and b represented the short diameter).

For data set [8], the system named is human PDL1-positive liver cancer LD1-0011-200617 PDX. As to the kind of experiment: Anti-tumor effect, LD1-0011-200617 PDX xenograft. The data set is classed as in vivo, NU/NU mice. The conditions noted are these: once a week for three doses, day 21.
Data set [9] deals with human non-small cell lung cancer LU6437 PDX. As to the kind of experiment: Anti-tumor effect, LU6437 PDX xenograft. Type of data set: in vivo, BALB/c nude mice. The conditions noted are these: once a week for three doses, day 21. On the procedure:
A revived tumor tissue was harvested from HuPrime® lung cancer xenograft model LU6437 tumor-bearing mice and cut into tumor blocks with a diameter of 2-3 mm, which were inoculated subcutaneously at the right anterior scapula of BALB/c nude mice. […] The average volume was 253.70 mm^3 in the actual groups. The day of grouping was defined as day 0. After the start of dosing, the mice were dosed once a week, for three doses, and the body weight and tumor size of the mice were measured twice a week. Clinical symptoms observed during the experiment were recorded. The tumor volume was calculated according to the following formula: tumor volume (mm3)=½×(a×b2) (wherein a represented the long diameter, and b represented the short diameter).

Data set [10] deals with PDL1-positive cells NCI-H292. The data set can be described thus: Internalization into PDL1-positive cells (pHrodo labeling, flow cytometry). Type of data set: cell-based. The conditions noted are these: for incubation time at which the proportion of internalization reached the peak: NCI-H292.
Data set [11] relates to low-PDL1-expressing human pancreatic cancer BxPC3 cells. The data set can be described thus: Anti-tumor activity, subcutaneous BxPC3 model. Type of data set: in vivo, NCG mouse. The conditions noted are these: 8 mg/kg, once a week for three doses, day 35.
In data set [12] the test system is BXPC-3. The data set can be described thus: Cell killing activity (CellTiter-Glo). Type of data set: cell-based, human. To be noted: BXPC-3, 72 hours. (In general: Cellular ATP, detected with luciferase, serves as a proxy for viable cell number.)
The test system of data set [13] is NCI-H292. As to the kind of experiment: Cell killing activity (CellTiter-Glo). Type of data set: cell-based. The conditions noted are these: NCI-H292, 72 hours.
The test system of data set [14] is human PDL1-positive esophageal squamous carcinoma LD1-0015-362448 PDX. As to the kind of experiment: Anti-tumor effect, LD1-0015-362448 PDX xenograft. Type of data set: in vivo, Balb/c nude mice. The conditions noted are these: 10 mg/kg, once a week for three doses, day 45.
Data set [15] has as its system PDL1-positive cells NCI-H441. As to the kind of experiment: Affinity of anti-PDL1 antibody-drug conjugate for PDL1-positive cells (flow cytometry). The data set is classed as binding.
Data set [16] deals with human breast cancer MDA-MB-231 cells. The data set can be described thus: Anti-tumor activity, subcutaneous MDA-MB-231 model. Type of data set: in vivo, NCG mouse. The conditions noted are these: once a week for three doses, day 35.
Data set [17] relates to human PDL1-positive colorectal cancer LD1-2013-362125 PDX. The data set can be described thus: Anti-tumor effect, LD1-2013-362125 PDX xenograft. The data set is classed as in vivo, NU/NU mice. To be noted: 10 mg/kg, once a week for three doses, day 31. As to the method: as §2, with “colorectal” for “cervical”, “LD1-2013-362125” for “LD1-0010-200614”, “NU/NU” for “Balb/c nude”, “156.99” for “146.74”

The test system of data set [18] is NCI-H441. The data set can be described thus: Cell killing activity (CellTiter-Glo). Type of data set: cell-based. The conditions noted are these: NCI-H441, 72 hours.
The test system of data set [19] is human PDL1-positive gastric cancer LD1-0017-200636 PDX. The data set can be described thus: Anti-tumor effect, LD1-0017-200636 PDX xenograft. The data set is classed as in vivo, NU/NU mice. To be noted: 10 mg/kg, once a week for three doses, day 21. As to the method: as §2, with “gastric” for “cervical”, “LD1-0017-200636” for “LD1-0010-200614”, “NU/NU” for “Balb/c nude”, “30-60” for “25-35”, “138.70” for “146.74”

T1 sequence (D4AE25 19-239): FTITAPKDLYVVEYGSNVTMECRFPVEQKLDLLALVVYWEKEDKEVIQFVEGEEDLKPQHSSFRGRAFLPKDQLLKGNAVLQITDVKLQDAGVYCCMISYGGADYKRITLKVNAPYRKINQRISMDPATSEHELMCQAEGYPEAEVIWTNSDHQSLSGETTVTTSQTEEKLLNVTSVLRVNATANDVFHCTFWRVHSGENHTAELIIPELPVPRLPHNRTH

B1: MAB20-LP62 (DAR8): antibody-drug conjugate formed by conjugation of anti-PDL1 antibody MAB20 to linker-toxin LP62, n=8 (conjugate)
heavy: EVQLVQSGGGLVKPGGSLRLSCAASGFTFSSYTMNWVRQAPGKGLEWVSSISSGSDYLYYADSVKGRFTISRDNAKNSLYLQMNSLRAEDTAVYYCARNELRWYPQAGAFDRWGQGTMVTVSSASTKGPSVFPLAPSSKSTSGGTAALGCLVKDYFPEPVTVSWNSGALTSGVHTFPAVLQSSGLYSLSSVVTVPSSSLGTQTYICNVNHKPSNTKVDKKV[human IgG1 Fc with changes not shown]
light: QSVVTQPPSMSAAPGQRVTISCSGSSSYIESSYVGWYQQLPGTAPRLLIYDDDMRPSGIPDRFSGSKSGTSATLAITGLQTGDEADYYCEIWRSGLGGVFGGGTKLTVLSQPKAAPSVTLFPPSSEELQANKATLVCLISDFYPGAVTVAWKADSSPVKAGVETTTPSKQSNNKYAASSYLSLTPEQWKSHKSYSCQVTHEGSTVERTVALTEC
For B1, in data set [1], the “cytotoxicity to dendritic cells” value was “did not show significant cytotoxicity”. The cytotoxicity to macrophages result in data set [2] is given as “did not show significant cytotoxicity”. Also, in [3], the binding entry is “weak specific binding”. For the same molecule, the TGI is recorded as 102.31% in data set [4]; 109.33% in data set [7]; 75.24% in data set [8] (3 mg/kg); 89.51% in data set [8] (10 mg/kg); 43.23% in data set [9] (3 mg/kg); 106.85% in [9] (8 mg/kg). The TGI is reported as 40.9% in data set [11], 92.02% in data set [14], 101.59% in [17] and 108.18% in data set [19]. Further, in data set [5], the bystander effect result is given as “significant bystander effect”. The “affinity compared with unconjugated antibody MAB20” value in [6] is “comparable”. The “affinity for PDL1-positive cells” value in data set [6] and in data set [15] was “better affinity” each time. Further, the “incubation time at which the proportion of internalization reached the peak” value in data set [10] is 4 h. Further, the internalization result in data set [10] (NCI-H292, compared with IgG1 isotype control) was “can effectively bind the PDL1 antigen on the cell surface and be internalized into the intracellular lysosomal pathway”. Further, the cell killing effect entry in [12], in data set [13] and in [18] was “stronger cell killing effects” each time. The “tumor growth inhibition rate (TGI)” value is given as 80.33% in [16] (3 mg/kg) and 92.91% in data set [16] (8 mg/kg).

B2: MAB20: anti-PDL1 antibody, heavy chain SEQ ID NO: 9, light chain SEQ ID NO: 10 (antibody)
heavy: EVQLVQSGGGLVKPGGSLRLSCAASGFTFSSYTMNWVRQAPGKGLEWVSSISSGSDYLYYADSVKGRFTISRDNAKNSLYLQMNSLRAEDTAVYYCARNELRWYPQAGAFDRWGQGTMVTVSSASTKGPSVFPLAPSSKSTSGGTAALGCLVKDYFPEPVTVSWNSGALTSGVHTFPAVLQSSGLYSLSSVVTVPSSSLGTQTYICNVNHKPSNTKVDKKV[human IgG1 Fc with changes not shown]
light: QSVVTQPPSMSAAPGQRVTISCSGSSSYIESSYVGWYQQLPGTAPRLLIYDDDMRPSGIPDRFSGSKSGTSATLAITGLQTGDEADYYCEIWRSGLGGVFGGGTKLTVLSQPKAAPSVTLFPPSSEELQANKATLVCLISDFYPGAVTVAWKADSSPVKAGVETTTPSKQSNNKYAASSYLSLTPEQWKSHKSYSCQVTHEGSTVERTVALTEC
modifications: MAB20 HC; MAB20 LC
Take B2: the TGI is recorded as 67.38% in data set [7], 30.3% in data set [8] (10 mg/kg), 50.27% in data set [17] and 14.89% in data set [19]. The “incubation time at which the proportion of internalization reached the peak” value in data set [10] came out at 4 h. For the same molecule, the “tumor growth inhibition rate (TGI)” value in data set [16] (8 mg/kg) amounted to 21.26%.
